Tested on: H. influenzae
Test: Study 95-001 otitis media caused by H. influenzae
Format: in vivo, human
Details: single dose (30 mg/kg) regimen; 8 patients; follow-up
Procedure: Specimens for culture and susceptibility testing were obtained from the infected ear by tympanocentesis within 24 h of start of therapy. […] However, the study was evaluated using the breakpoints in the most recent set of guidelines.
To be a bacteriological cure, the MITT subject had to have a positive culture from the middle ear for S. pneumoniae, H influenzae, or M. catarrhalis. Eradication was defined as presumed eradication of pretreatment pathogen(s) based on signs/symptoms or unavailability of culturable material. All evaluable patients had only one of the bacterial species present at baseline. There was no bacteriological response data collected for 95–001. However, the clinical outcome by bacterial pathogen at follow-up (approximately 28 days after first visit) was collected. For patients with S. pneumoniae as the baseline pathogen, all treatment arms yielded 100% clinical cure when the investigators' evaluations that were missing are not included in the analysis. […] The comparator drug, ceftriaxone, had no failures out of 9 patients.

CC[C@H]1OC(=O)[C@H](C)[C@@H](O[C@H]2C[C@@](C)(OC)[C@@H](O)[C@H](C)O2)[C@H](C)[C@@H](O[C@@H]2O[C@H](C)C[C@H](N(C)C)[C@H]2O)[C@](C)(O)C[C@@H](C)CN(C)[C@H](C)[C@@H](O)[C@]1(C)O [Azithromycin, 9a-aza-9a-methyl-9-deoxo-9a-homoerythromycin A]
failures: 1
